T1: Human-NKP30-His (human, UniProt O14931 19-135, limits assumed)
T1 construct: Coated on the ELISA plate at 0.5 µg/mL; also called NKP30 protein; not shown: His tag
T1 sequence (looked up): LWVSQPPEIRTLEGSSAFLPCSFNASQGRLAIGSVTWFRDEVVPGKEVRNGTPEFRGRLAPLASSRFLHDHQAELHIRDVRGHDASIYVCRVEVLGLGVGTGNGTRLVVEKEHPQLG


Legend:
[1] = target: Claudin18.2 on PANC-1-Claudin18.2 cells (UniProt P56856); test: flow cytometry on PANC-1-Claudin18.2 cells, PE anti-human IgG Fc secondary antibody
Human-NKP30-His = target: T1, Human-NKP30-His; test: ELISA, plate coated with Human-NKP30-His, detection with HRP goat anti-human IgG-Fc
Protocol: Human-NKP30-His was diluted to 0.5 μg/mL with PBS buffer at pH 7.4, added into the 96-well ELISA plate at 100 μL per well, coated overnight at 4° C., and blocked with 1% BSA blocking solution for 1 hour. The plate was washed 3 times with PBST, and the constructed antibodies were diluted to 10 μg/mL with 0.5% BSA sample diluent as the starting concentration, and then diluted by 3-fold gradient (11 gradients in total). A negative control (blank well and IgG1 isotype control) and a positive control were set, and the positive control was a NKP30 humanized antibody (sequence shown in SEQ ID No.32), and incubated at 37° C. for 1 h at 100 μL per well. […] The absorbance value of each well in the 96-well plate was determined by selecting the wavelength of 450 nm and the reference wavelength of 570 nm on a multifunctional enzyme marker, and the absorbance value (OD)=OD₄₅₀ₙₘ−OD₅₇₀ₙₘ. The logarithm of the concentration of the constructed antibodies were taken as the abscissa, and the measured absorbance value of each well was taken as the ordinate, and the Sigmoidaldose-response (Variable Slope) method (GraphPad Prism software, GraphPad Software, San Diego, California) was selected for nonlinear regression to obtain the binding curve of the target antibody to NKP30 protein.

Binder | percent of cells in gate M2 [1] [%] | binding result (Human-NKP30-His)
CNV-C1 (protein) light: DIVMTQSPSSLTATARERVTMSCKSSQSLLNSGNQKNYLTWYQQKPGQPPKLLIYWASTRESGVPDRFTGSGSGTDFTLTVSSVQAEDLAVYYCQNAYFYPFTFGSGTKLEIKRTVAAPSVFIFPPSDEQLKSGTASVVCLLNNFYPREAKVQWKVDNALQSGNSQESVTEQDSKDSTYSLSSTLTLSKADYEKHKVYACEVTHQGLSSPVTKSFNRGECGGGGSGGGGSGGGGSGGGGSEVQLVESGGGLVQPGGSLRLSCAASGITFSRSVMGWFRQAPGKLRELVAGITSDDNTDYADSVKGRFTISRDNSKNTLYLQMNSLRAEDTAVYYCNILPDSRLGWGQGTLVTVSS heavy: EVQLVESGGGLVKPGGSLKLSCTASGFTFSSYVMSWVRQTPEKRLEWVATINDGGSYTYYPDNLKGRFTISRDNAKNNLYLQMSHLRSEDTARYYCSVLRRGNAMDYWGQGTSVTVSS[gap - human IgG1 constant region]GGSGGGGSGGGGSGGGGSEVQLVESGGGLVQPGGSLRLSCAASGYTFTNYGMNWVRQAPCKGLEWVGWINTYTGEPTYAADFKRRFTFSLDTSKSTAYLQMNSLRAEDTAVYYCAKYPHYYGSSHWYFDVWGQGTLVTVSSGGGGSGGGGSGGGGSDIQMTQSPSSLSASVGDRVTITCSASQDISNYLNWYQQKPGKAPKVLIYFTSSLHSGVPSRFSGSGSGTDFTLTISSLQPEDFATYYCQQYSTVPWTFGCGTKVEIK | 51.3 | 
CNVR-A (other, also called constructed antibody CNVR-A; trifunctional antibody) light: EVQLVESGGGLVQPGGSLRLSCAASGITFSRSVMGWFRQAPGKLRELVAGITSDDNTDYADSVKGRFTISRDNSKNTLYLQMNSLRAEDTAVYYCNILPDSRLGWGQGTLVTVSSGGGGSGGGGSGGGGSDIVMTQSPSSLTATARERVTMSCKSSQSLLNSGNQKNYLTWYQQKPGQPPKLLIYWASTRESGVPDRFTGSGSGTDFTLTVSSVQAEDLAVYYCQNAYFYPFTFGSGTKLEIKRTVAAPSVFIFPPSDEQLKSGTASVVCLLNNFYPREAKVQWKVDNALQSGNSQESVTEQDSKDSTYSLSSTLTLSKADYEKHKVYACEVTHQGLSSPVTKSFNRGEC heavy: EVQLVESGGGLVKPGGSLKLSCTASGFTFSSYVMSWVRQTPEKRLEWVATINDGGSYTYYPDNLKGRFTISRDNAKNNLYLQMSHLRSEDTARYYCSVLRRGNAMDYWGQGTSVTVSS[gap - human IgG1 constant region]GGSGGGGSGGGGSGGGGSTGSDTGRPFVEMYSEIPEIIHMTEGRELVIPCRVTSPNITVTLKKFPLDTLIPDGKRIIWDSRKGFIISNATYKEIGLLTCEATVNGHLYKTNYLTHRQTNTIIDVVLSPSHGIELSVGEKLVLNCTARTELNVGIDFNWEYPSSKHQHKKLVLSPVNRDLKTQSGSEMKKFLSTLTIDGVTRSDQGLYTCAASSGLMTKKNSTFVRVHEK | 97 | 
CNVR-B (other, It is a Claudin18.2 full-length antibody with the NKP30 VHH at the N-terminus of both heavy chains and VEGFR1 at the C-terminus of both heavy chains; also called constructed antibody CNVR-B; trifunctional antibody) light: DIVMTQSPSSLTATARERVTMSCKSSQSLLNSGNQKNYLTWYQQKPGQPPKLLIYWASTRESGVPDRFTGSGSGTDFTLTVSSVQAEDLAVYYCQNAYFYPFTFGSGTKLEIKRTVAAPSVFIFPPSDEQLKSGTASVVCLLNNFYPREAKVQWKVDNALQSGNSQESVTEQDSKDSTYSLSSTLTLSKADYEKHKVYACEVTHQGLSSPVTKSFNRGEC heavy: EVQLVESGGGLVQPGGSLRLSCAASGITFSRSVMGWFRQAPGKLRELVAGITSDDNTDYADSVKGRFTISRDNSKNTLYLQMNSLRAEDTAVYYCNILPDSRLGWGQGTLVTVSSGGGGSGGGGSGGGGSEVQLVESGGGLVKPGGSLKLSCTASGFTFSSYVMSWVRQTPEKRLEWVATINDGGSYTYYPDNLKGRFTISRDNAKNNLYLQMSHLRSEDTARYYCSVLRRGNAMDYWGQGTSVTVSS[gap - human IgG1 constant region]GGSGGGGSGGGGSGGGGSTGSDTGRPFVEMYSEIPEIIHMTEGRELVIPCRVTSPNITVTLKKFPLDTLIPDGKRIIWDSRKGFIISNATYKEIGLLTCEATVNGHLYKTNYLTHRQTNTIIDVVLSPSHGIELSVGEKLVLNCTARTELNVGIDFNWEYPSSKHQHKKLVLSPVNRDLKTQSGSEMKKFLSTLTIDGVTRSDQGLYTCAASSGLMTKKNSTFVRVHEK | 97.7 | 
CNVR-C (other, It is a Claudin18.2 full-length antibody with the NKP30 VHH at the C-terminus of both light chains and VEGFR1 at the C-terminus of both heavy chains; also called constructed antibody CNVR-C; trifunctional antibody) light: DIVMTQSPSSLTATARERVTMSCKSSQSLLNSGNQKNYLTWYQQKPGQPPKLLIYWASTRESGVPDRFTGSGSGTDFTLTVSSVQAEDLAVYYCQNAYFYPFTFGSGTKLEIKRTVAAPSVFIFPPSDEQLKSGTASVVCLLNNFYPREAKVQWKVDNALQSGNSQESVTEQDSKDSTYSLSSTLTLSKADYEKHKVYACEVTHQGLSSPVTKSFNRGECGGGGSGGGGSGGGGSGGGGSEVQLVESGGGLVQPGGSLRLSCAASGITFSRSVMGWFRQAPGKLRELVAGITSDDNTDYADSVKGRFTISRDNSKNTLYLQMNSLRAEDTAVYYCNILPDSRLGWGQGTLVTVSS heavy: EVQLVESGGGLVKPGGSLKLSCTASGFTFSSYVMSWVRQTPEKRLEWVATINDGGSYTYYPDNLKGRFTISRDNAKNNLYLQMSHLRSEDTARYYCSVLRRGNAMDYWGQGTSVTVSS[gap - human IgG1 constant region]GGSGGGGSGGGGSGGGGSTGSDTGRPFVEMYSEIPEIIHMTEGRELVIPCRVTSPNITVTLKKFPLDTLIPDGKRIIWDSRKGFIISNATYKEIGLLTCEATVNGHLYKTNYLTHRQTNTIIDVVLSPSHGIELSVGEKLVLNCTARTELNVGIDFNWEYPSSKHQHKKLVLSPVNRDLKTQSGSEMKKFLSTLTIDGVTRSDQGLYTCAASSGLMTKKNSTFVRVHEK | 99 | binds
